Reference: article PMC4336329 (PLoS ONE, 2015)
Screen size: about 310,000 compounds; about 2,200 (0.71%) showed an effect of 50% or more. The effect is printed as a negative number. This is one part of the list.

target: human ether-à-go-go-related gene (hERG) potassium channel (human, UniProt Q12809); assay: primary screen, population patch clamp on CHO cells stably expressing hERG
Sequence (Q12809 whole entry, looked up): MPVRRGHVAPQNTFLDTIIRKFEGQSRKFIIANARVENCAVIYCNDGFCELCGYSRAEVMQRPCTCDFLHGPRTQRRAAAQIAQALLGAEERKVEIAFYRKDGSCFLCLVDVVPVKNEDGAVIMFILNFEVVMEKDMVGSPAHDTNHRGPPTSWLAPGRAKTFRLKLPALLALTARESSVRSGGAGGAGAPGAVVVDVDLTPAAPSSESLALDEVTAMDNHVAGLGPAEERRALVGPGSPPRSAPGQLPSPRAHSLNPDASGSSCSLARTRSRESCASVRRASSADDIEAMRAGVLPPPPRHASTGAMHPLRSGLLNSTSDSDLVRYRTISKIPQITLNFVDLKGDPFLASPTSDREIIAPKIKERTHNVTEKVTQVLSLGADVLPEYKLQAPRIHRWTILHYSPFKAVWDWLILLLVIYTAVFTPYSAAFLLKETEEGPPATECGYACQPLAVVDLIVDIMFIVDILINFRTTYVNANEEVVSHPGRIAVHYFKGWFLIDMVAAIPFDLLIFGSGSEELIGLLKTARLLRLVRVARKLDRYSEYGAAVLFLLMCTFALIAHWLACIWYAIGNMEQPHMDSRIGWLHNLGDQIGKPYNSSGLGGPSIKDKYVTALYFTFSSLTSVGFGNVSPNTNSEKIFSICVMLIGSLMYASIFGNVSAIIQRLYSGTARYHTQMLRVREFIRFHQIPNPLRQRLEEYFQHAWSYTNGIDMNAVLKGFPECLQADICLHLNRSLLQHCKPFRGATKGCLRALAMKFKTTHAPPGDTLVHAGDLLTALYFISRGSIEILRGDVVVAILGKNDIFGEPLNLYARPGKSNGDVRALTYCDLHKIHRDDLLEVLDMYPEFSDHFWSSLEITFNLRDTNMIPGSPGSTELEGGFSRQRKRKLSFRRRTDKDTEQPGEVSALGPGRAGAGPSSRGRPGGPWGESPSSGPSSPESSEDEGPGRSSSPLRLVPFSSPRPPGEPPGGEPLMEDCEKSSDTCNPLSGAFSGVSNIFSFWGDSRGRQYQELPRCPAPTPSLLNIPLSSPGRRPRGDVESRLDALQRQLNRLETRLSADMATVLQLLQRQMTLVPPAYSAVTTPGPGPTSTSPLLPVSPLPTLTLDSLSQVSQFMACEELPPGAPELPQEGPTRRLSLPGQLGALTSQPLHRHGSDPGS

Structure (SMILES) | hERG current change (%, negative = inhibition) at 1uM [%]
Cc1cnc(CNC(=O)c2ccc3oc(Cc4ccccc4)nc3c2)[nH]1 | 13.4
COC(=O)CN(c1cccc(C(C)=O)c1)S(C)(=O)=O | 7.91
O=C(N/N=C/c1cc(Br)cc(Br)c1O)c1cccc(N2CCCC2=O)c1 | 10.2
Cc1cccn2c(=O)c3cc(C(=O)NC4CCCCC4)c(=N)n(Cc4ccc(F)cc4)c3nc12 | -16
Oc1ccc(/C=N/n2cnn(Cc3ccccc3Cl)c2=S)c(O)c1 | 10.5
O=S(=O)(NCc1ccco1)N1CCOCC1 | 8.35
COc1ccc(C2=NOC(Cn3nc(-c4ccccc4C)cc3C(=O)O)C2)cc1 (centres unmarked) | 1.1
Cc1ccc(C(=O)Nc2cccc(S(=O)(=O)N3CCOCC3)c2)cc1[N+](=O)[O-] | 15.7
O=C(Cn1cc2c(n1)CCCCC2)Nc1ccccc1Cl | 3.09
Cc1cc(C(F)(F)F)nn1Cc1n[nH]c(=S)n1Cc1ccccc1 | 1.45
Cn1nc(-c2ccc(OCC(=O)NCC3CCCO3)cc2)c2ccccc2c1=O (centres unmarked) | -2.28
O=C(O)CCC1(CCC(=O)O)c2ccccc2-c2ccccc21 | 7.08
Cn1c(/C=C/c2cccc(Br)c2)nc2ccccc2c1=O | 15
Cc1ccsc1C(=O)OCC(=O)c1ccc[nH]1 | 6.23
CC(=O)Nc1ccc(NC(=O)N2CCCCC2)cc1 | 0.414
Cn1c(CN2CCOCC2)nnc1SCC(=O)Nc1nccs1 | 9.59
CC(=O)c1ccc(N=C2NC(=O)C(CO)(CO)S2)cc1 | 3.27
CC1CCN(S(=O)(=O)c2ccc(N/N=C(/C#N)C(N)=O)cc2)CC1 | 10.7
CS(=O)(=O)c1ccc(NCCN2CCOCC2)c([N+](=O)[O-])c1 | 15.9
Clc1ccc(CNCc2cccs2)c(Cl)c1 | 17.8
Cc1ccc(/C=C2/SC(=S)N(CCC(=O)N3CCOCC3)C2=O)cc1 | 12.9
COc1ccc(CC(O)COS(N)(=O)=O)cc1 (centres unmarked) | 8.1
COC(=O)c1sc(C(C)(C)C)cc1CSc1ccccc1 | 1.18
CCCn1c(=O)c2c(c3ccccc31)OC(C)C(=O)N2 (centres unmarked) | 1.1
CCCCC1(C)OC(=O)C(=Cc2c[nH]c3ccccc23)C(=O)O1 (centres unmarked) | 17.3
Cc1nnc2nc(-c3ccccc3)nc(-c3ccccc3)n12 | 15.4
